Results: PMC4336329 (PLoS ONE, 2015)
Hit rate of the full screen: of about 310,000 compounds, about 14,000 (4.5%) showed an effect of 50% or more. Effects have a minus sign here. The list shows a part of the results.

The compounds below were run against human ether-à-go-go-related gene (hERG) potassium channel (human, UniProt Q12809) (assay: primary screen, population patch clamp on CHO cells stably expressing hERG).
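Note: peak tail current of the secondary pulse compared with the same well before compound.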

Sequence of human ether-à-go-go-related gene (hERG) potassium channel (Q12809 whole entry, looked up): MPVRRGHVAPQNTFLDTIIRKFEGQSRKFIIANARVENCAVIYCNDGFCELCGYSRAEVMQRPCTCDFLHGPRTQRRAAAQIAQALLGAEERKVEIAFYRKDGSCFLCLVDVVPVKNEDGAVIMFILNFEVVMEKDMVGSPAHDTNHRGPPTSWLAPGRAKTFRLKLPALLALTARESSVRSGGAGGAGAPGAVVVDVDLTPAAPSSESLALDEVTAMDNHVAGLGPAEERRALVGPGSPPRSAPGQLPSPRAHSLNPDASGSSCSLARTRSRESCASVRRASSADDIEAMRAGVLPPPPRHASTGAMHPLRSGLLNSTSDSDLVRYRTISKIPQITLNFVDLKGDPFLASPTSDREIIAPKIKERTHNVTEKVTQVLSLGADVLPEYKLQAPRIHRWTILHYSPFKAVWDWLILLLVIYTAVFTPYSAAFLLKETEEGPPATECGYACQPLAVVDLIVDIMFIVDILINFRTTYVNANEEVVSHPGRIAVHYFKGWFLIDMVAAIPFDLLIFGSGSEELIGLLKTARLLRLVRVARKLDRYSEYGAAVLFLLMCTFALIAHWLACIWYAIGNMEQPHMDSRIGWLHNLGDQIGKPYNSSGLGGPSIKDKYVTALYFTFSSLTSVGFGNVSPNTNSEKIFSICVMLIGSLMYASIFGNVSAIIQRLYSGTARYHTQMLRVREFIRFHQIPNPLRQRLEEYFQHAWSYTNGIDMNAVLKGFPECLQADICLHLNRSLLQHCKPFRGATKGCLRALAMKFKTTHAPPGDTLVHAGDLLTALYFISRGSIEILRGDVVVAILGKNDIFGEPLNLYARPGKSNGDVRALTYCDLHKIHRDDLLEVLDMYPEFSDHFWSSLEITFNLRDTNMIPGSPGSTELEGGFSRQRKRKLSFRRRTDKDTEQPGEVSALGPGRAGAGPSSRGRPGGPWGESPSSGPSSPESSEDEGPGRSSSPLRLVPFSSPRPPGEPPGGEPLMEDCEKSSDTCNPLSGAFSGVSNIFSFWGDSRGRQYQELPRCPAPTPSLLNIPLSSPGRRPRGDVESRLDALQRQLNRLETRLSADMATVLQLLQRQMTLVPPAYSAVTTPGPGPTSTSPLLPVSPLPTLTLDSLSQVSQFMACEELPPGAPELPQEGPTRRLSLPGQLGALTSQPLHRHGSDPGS

Row | Structure (SMILES) | hERG current change (%, negative = inhibition) at 10uM [%]
1 | CCSc1oc(-c2ccco2)nc1S(=O)(=O)c1ccc(F)cc1 | -23.2
2 | COc1ccc(NC(=O)c2cc(-c3cc(C)c(C)cc3O)n[nH]2)c(OC)c1 | 23.5
3 | CCCCOc1ccc(CSc2ncn[nH]2)cc1 | -0.564
4 | CC(NC(=O)c1ccc(Cn2cc([N+](=O)[O-])cn2)o1)c1ccccc1 (stereo not drawn) | -14.2
5 | OC1CCCN(Cc2ccc3ccc4cccc5ccc2c3c45)C1 (stereo not drawn) | -4.79
6 | O=C(Cc1c(Cl)cccc1Cl)Nc1ccncc1Cl | 7.9
7 | Cc1cc2ccc3ccccc3c2cc1CN(C)C.Cl | -51.9
8 | COc1c(OC(C)=O)ccc(/C=N\NC(=O)c2ccc(Br)cc2)c1[N+](=O)[O-] | 18.2
9 | Cc1ccc(SC(=O)c2c([N+](=O)[O-])c(C)nn2C)cc1 | 11.4
10 | Cc1cccc(C2=N/C(=C/c3cccs3)C(=O)O2)c1 | 20
11 | Cc1cc2c(cc(C(=O)OCC(=O)NCc3cccs3)n2C(C)C)o1 | 6.81
12 | COc1cccc(-n2nnnc2SCC(=O)c2ccc(NC(C)=O)cc2)c1 | -17.3
13 | COc1ccccc1-n1c(SCC(=O)NC2CC2)nc2ccccc2c1=O | -23.1
14 | COC(=O)c1cc(CNC(=O)CC(C)c2ccccc2)ccc1OC (stereo not drawn) | 8.5
15 | CCOc1ccc(N2C(=O)/C(=C/c3ccco3)C(=O)NC2=S)cc1 | 16.8
16 | Cc1ccccc1NC(=S)/C(=C(\[O-])c1ccc(C)c([N+](=O)[O-])c1)[n+]1ccccc1 | -1.7
17 | O=C(NC1CCCCCCC1)c1c(O)c2ccccc2[nH]c1=O | 19.4
18 | CC(=O)c1nn(-c2cccc(C)c2)cc1C(=O)c1cccc(Br)c1 | 18.4
19 | Nc1ccc([N+](=O)[O-])cc1C(=O)NNC(=O)c1ccco1 | 25.9
20 | COC(=O)C1CCN(c2cc(=O)n(Cc3ccc(F)cc3)c(=O)[nH]2)CC1 | -12.8
21 | O=C(/C=C/c1ccccc1)c1ccccn1 | 12.5
22 | CCCCN(C)S(=O)(=O)c1cc2c3c(c1)CCC(=O)N3CCC2 | -16

Row | Structure (SMILES) | hERG current change (%, negative = inhibition) at 10uM [%]
23 | C=CCN1C(=O)/C(=c2\sc3nc(=O)c(Cc4ccc(OC)c(OC)c4)nn3c2=O)c2ccccc21 | 16
24 | CC(=O)N(Cc1cc(=O)[nH]c2ccccc12)c1cccc(C)c1 | -8.96
25 | Cc1ccc(NC(=O)CSCc2cc(=O)n3cc(C)sc3n2)c(C)c1 | 7.65
26 | CCN(CC)C(=O)CSc1nnc([C@@H](NC(=O)OC(C)(C)C)C(C)C)o1 | -7.92
27 | COc1ccc(-n2c(SCC(=O)Nc3nccs3)nc3sc4c(c3c2=O)CCN(C)C4)cc1 | 1.65
28 | Cl.NC(N)=Nc1nc2ccc(Br)cc2c(=O)[nH]1 | 2.28
29 | COc1ccc(NS(=O)(=O)c2cc(NC(=O)CNC(=O)c3cccc(OC)c3)ccc2C)cc1 | 7.88
30 | O=C(COC(=O)c1ccc(N2CCCC2=O)cc1)c1ccccc1 | 4.94
31 | CCCCOc1ccc(S(=O)(=O)N2CCCCCC2)cc1 | -18.8
32 | c1ccc(Cn2ncc3ccccc32)cc1 | 0.449
33 | CS(=O)(=O)c1ccc(Cl)c(NC(=O)CSC(=S)N2CCCC2)c1 | 14.6
34 | O=C(O)c1cccc2c1-c1ccccc1/C2=N\Nc1ccccc1 | 25.9
35 | COc1ccc(CNC(=O)[C@@H](NC(=O)C2CCN(C(=O)[C@@H](N)Cc3ccccc3)CC2)C(C)C)cc1 | 0.905
36 | CCC(C)N(C(=O)COC(=O)c1cn(CC)c2nc(C)ccc2c1=O)C1CCS(=O)(=O)C1 (stereo not drawn) | 21.4
37 | CCCCN1C(=O)NC(=O)C2(Cc3cc(C)ccc3N(C)C2)C1=O (stereo not drawn) | 0.769
38 | COC(=O)C1(Cc2cc(-c3cccc(Br)c3)no2)CCN(C(=O)OC(C)(C)C)CC1 | -4.92
39 | COc1ccc(/C=N/NC(=O)CSc2nnc(C)n2-c2ccccc2)c(OC)c1OC | 13.8
40 | Cc1[nH]c2ccccc2c(=O)c1CN1CCCCCC1 | -7.41
41 | Fc1ccccc1Oc1nc(-c2ccncc2)nc2ccccc12 | 10.1
42 | CCCCC(=O)Nc1cccc(NC(=O)c2cccc(Br)c2)c1 | 0.0981
43 | CCN1C(=O)[C@H]2[C@@H](c3ccc(-c4ccc(F)cc4)cc3)N3CCCC[C@@]3(C(=O)OC)[C@H]2C1=O.O=C(O)C(F)(F)F | 3.9
44 | CC(C)Cc1nc(SCC(=O)N2CC(C)OC(C)C2)c2c(=O)n(C)c(=O)n(C)c2n1 (stereo not drawn) | -5.3

Row | Structure (SMILES) | hERG current change (%, negative = inhibition) at 10uM [%]
45 | O=C(NCCO)C1CCN(C(=O)c2ccc(-c3ccccc3)cc2)CC1 | 15.1
46 | O=C(CCc1nc(-c2ccccc2Cl)no1)NCc1ccco1 | 2.62
47 | CCN(C(=O)Cn1nc(C(=O)O)c2ccccc2c1=O)C1CCCCC1 | -6.42
48 | Cc1ccccc1OCCCC(=O)Nc1ccc(N2CCOCC2)cc1 | -1.97
49 | C[C@@H](NC(=O)[C@@H]1Cc2ccccc2CN1)C(=O)Nc1ccc2c(c1)OCO2 | -1.88
50 | NC(=O)c1nsc(C(=O)N(CC(=O)NC2CCCCC2)c2ccc(Cl)cc2)c1N | -8.62
51 | CSc1nnc(-c2nnc(SC)n2-c2ccccc2)n1-c1ccccc1 | -9.96
52 | COc1ccccc1N1CCN(CC(=O)NC(=O)NCc2ccco2)CC1 | -0.631
53 | COc1ccc(/C=C/C(=O)c2ccc(C)c([N+](=O)[O-])c2)cc1O | 14.3
54 | COC(=O)c1cc(N=Nc2sc(N)nc2C)cc(C(=O)OC)c1 | -27.2
55 | Cc1cc(CC(=O)O)c(C)cc1CC(=O)O | -1.77
56 | COCCN(C(=O)CCC(=O)Nc1cc(C)on1)C(C(=O)NC(C)(C)C)c1ccccc1Cl (stereo not drawn) | 22.6
57 | CCC1C(c2ccccc2)N(C)C(c2ccccc2)CC1(O)c1ccccc1.Cl (stereo not drawn) | 11.3
58 | Cc1c(NC(=O)CN2CCN(c3ccc(F)cc3)CC2)c(=O)n(-c2ccccc2)n1C | 0.675
59 | CCN(CC)S(=O)(=O)c1cccc(C(=O)NCCCN2CCOCC2)c1 | 9.9
60 | Nc1cnc(Nc2ccc(Br)cc2)nc1N.O=S(=O)(O)O | -8.72
61 | O=C(Nc1cccnc1)c1cc(F)cc(F)c1 | 13.4
62 | CCCc1nc(SCC(=O)Nc2cc(C)on2)c2ccccc2n1 | 1.5
63 | COc1ccc(C(=O)CCN2CCN(c3ccc(OC)cc3)CC2)cc1 | -73.1
64 | COc1ccc(C2C(C#N)=C(N)Nc3nc4ccccc4n32)cc1 (stereo not drawn) | 0.0675
65 | Cc1c(C)c2ccc(OC(C)C(=O)NC3CCN(Cc4ccccc4)CC3)cc2oc1=O (stereo not drawn) | -54.2
66 | O=C(O)CCc1cccnc1 | 7.55

Row | Structure (SMILES) | hERG current change (%, negative = inhibition) at 10uM [%]
67 | CCOC(=O)c1cccc(NC(=O)c2ccc(NC(=O)C3CCCO3)cc2)c1 (stereo not drawn) | -22.1
68 | Cc1oc2c(O)c(O)ccc2c(=O)c1-c1ccc(Cl)cc1 | -11.3
69 | Cc1c(NC(=O)c2ccc(=O)oc2)c(=O)n(-c2ccccc2)n1C | 11.8
70 | O=C(CCc1nc(-c2ccccc2F)no1)NCCc1ccccc1Cl | -14.8
71 | COc1ccc(S(=O)(=O)N2CCCC2C(=O)NCc2ccccc2Cl)cc1 (stereo not drawn) | -12.4
72 | O=C(O)c1ccc(CSc2nnc(COc3ccccc3)o2)cc1 | 8
73 | Cc1ccc(C)c(-n2nnnc2SCC(=O)NNC(=O)c2ccco2)c1 | 3.28
74 | C=CCc1ccccc1OCC(=O)OCCNC(=O)c1cccnc1.Cl | 5.92
75 | COc1ccc(/C=C2\C(=O)NCC(=O)N2Cc2ccccc2)cc1 | 4.69
76 | Cc1cccc(/C=N\NC(=O)c2ccccc2-n2cccc2)c1 | 15.3
77 | O=C(CSc1nnc(Cn2c(=O)sc3ccccc32)n1CCc1ccccc1)N1CCOCC1 | -5.81
78 | CCOC(=O)c1sc(=S)n(-c2ccc3c(c2)OCO3)c1N | 10.3
79 | O=C(COc1cccnc1[N+](=O)[O-])N1CCN(S(=O)(=O)c2ccccc2)CC1 | -12.2
80 | COc1ccccc1N1CCN(C(=O)C2CCN(S(=O)(=O)c3ccc(Cl)cc3)CC2)CC1 | -39.5
81 | Cc1nc2ccc(C(=O)Nc3cccc([N+](=O)[O-])c3)cc2s1 | 3.71
82 | Cc1nn(CC(=O)NCCc2cccs2)c(=O)c2nn(-c3ccccc3)c(C)c12 | -7.67
83 | CCOc1ccc(NC(=S)N(C)C)cc1 | 10.8
84 | CCCCn1nc(C)c(C(=O)O)c1Cl | 13.2
85 | Cc1nn(-c2ccccc2)c(N2CCCC2)c1C=O | 2.49
86 | Cc1ccsc1C(=O)OCc1nc2ccccc2c(=O)[nH]1 | -14.2
87 | COc1ccc(NC(=O)CN(C)C(=O)c2cccc(S(=O)(=O)N3CC4(C)CC3CC(C)(C)C4)c2)cc1 (stereo not drawn) | 7.23
